In PubChem BioAssay AID1508623 (National Center for Advancing Translational Sciences (NCATS), 2021):
Screen size: about 48,000 compounds; about 450 (0.94%) were called active. Not shown: some 19% with an inconclusive outcome. Calls follow the shape of the dose curve; as a rule, active = well fitted inhibition curve with a large enough effect; inconclusive = small, poorly fitted or top-dose-only effect; inactive = no such curve, though single readings can be large or run the other way. The list shows a part of the results.

Assay: Primary qHTS for Identification of Small Molecule Inhibitors of Huntingtin Promoter Activity; also: nearly all actives have a fitted effect of over 50% in size
Conditions: HEK293 HTT promoter firefly luciferase reporter (activity 0% = vehicle and -100% = no light), 24 h; series mostly up to 57.5 µM; activity change, negative = inhibition: at the top concentration
Method in brief: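 Firefly luciferase readout (Dual-Glo, 10 min RT) after 24 h, 37 °C compound exposure (final up to 57.5 uM) of HEK293 reporter cells cultured 24 h beforehand; PTC124 at 50 uM final as control inhibitor; activity scaled vehicle 0%, zero RLU -100%.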
Potency is read from the fitted curve at half-maximal effect.

Row | Structure (SMILES) | activity change, negative = inhibition | Potency
1 | Cc1nn(C)c2c1c(-c1ccccc1)cc(=O)n2CC(=O)NC(C)C | inactive: -4.06% | 
2 | COc1cccc(CNC(=O)C2CCCN(c3nc4ccccc4n4cccc34)C2)c1 (centres undefined) | inactive: 2.77% | 
3 | Cc1ccc(CN2CCCn3nc(C(=O)NCCc4ccccc4Cl)cc3C2=O)cc1 | inactive: -25.4% | 
4 | COc1ccc(CCNCc2ccc3c(c2)n(C)c(=O)n3C)cc1OC | inactive: -6.57% | 
5 | Cc1ccc(CNC(=O)c2ccc3c(O)c(S(=O)(=O)c4ccc(Cl)cc4)c(=O)[nH]c3c2)cc1 | inactive: -2.11% | 
6 | COc1ccc(C)cc1NC(=O)c1cc(S(=O)(=O)N2CCN(c3cccc(C)c3C)CC2)ccc1F | inactive: 6.1% | 
7 | CCCn1c2ccc(F)cc2c2nnc(SCCN(CC)CC)nc21 | inactive: -7.15% | 
8 | Cc1c(C(=O)Nc2ccccc2Cl)oc2ccc(S(=O)(=O)N3CCCCC3)cc12 | inactive: -15.9% | 
9 | Cc1ccc(C(=O)Nc2cccc(C(=O)OCc3cc(=O)n4nc(C5CC5)sc4n3)c2)cc1 | inactive: -9.52% | 
10 | COCC(C)Nc1ncnc2c1cnn2-c1ccc(C)c(C)c1 (centres undefined) | inactive: 39.4% | 
11 | CCCOc1ccc(C2CC(=O)Nc3c2c(=O)n(C)c(=O)n3C)cc1OC (centres undefined) | inactive: -16.3% | 
12 | CCOc1ccc(N2CC(NC(=O)C3CC3)CC2=O)cc1 (centres undefined) | inactive: -1.57% | 
13 | COc1ccc(-n2nc(C(=O)NCc3ccc(F)cc3Cl)c3c4ccccc4n(C)c3c2=O)cc1Cl | inactive: -0.575% | 
14 | CCCCN(CC)CCCNC(=O)Cn1ncc2c3ccccc3n(Cc3ccc(F)cc3)c2c1=O | inactive: -15% | 
15 | Cn1c(=O)c(=O)n(C)c2cc(S(=O)(=O)N3CCN(c4ccccc4)CC3)ccc21 | inactive: -11.2% | 
16 | CC(NC(=O)c1ccc2c(c1)sc1nc(-c3ccccc3)cn12)C12CC3CC(CC(C3)C1)C2 (centres undefined) | inactive: -12.6% | 
17 | COc1ccc(S(=O)(=O)NCc2nc3nc(C)cc(C)n3n2)cc1OC | inactive: 8.35% | 
18 | COc1ccc(CNC(=O)CSc2c3c(nc4ccc(Cl)cc24)CCCC3)cc1 | inactive: -15% | 
19 | CCc1nn(CC(=O)Nc2ccc(NC(C)=O)cc2)c(=O)c2cc3sccc3n12 | inactive: 1.74% | 
20 | O=C(Cn1cnc2onc(-c3ccc(Cl)cc3)c2c1=O)Nc1ccc(F)cc1 | inactive: -12.7% | 
21 | COCCNC(=O)CN1C(=O)c2cccnc2Oc2ccc(Cl)cc21 | inactive: 4.98% | 
22 | O=[N+]([O-])c1cc(-c2nc(-c3ccccc3)no2)ccc1N1CCOCC1 | inactive: -29.3% | 
23 | CCOc1ccccc1NC(=O)C1=C(C)Nc2ncnn2C1c1ccc(C)o1 (centres undefined) | inactive: -12% | 
24 | CCc1ccccc1NC(=O)Cn1c(SCc2ccc(F)cc2)nc2ccncc21 | inactive: -1.15% | 

Row | Structure (SMILES) | activity change, negative = inhibition | Potency
25 | Cc1cccc(NC(=O)c2oc3ccccc3c2NC(=O)Cc2coc3ccc(C(C)C)cc23)c1 | inactive: 33.4% | 
26 | CCc1cccc(CC)c1NC(=O)CCS(=O)(=O)c1ccc2c(c1)CCN2C(C)=O | inactive: -3.29% | 
27 | O=C(CCCn1c(=O)c2cccn2c2ccccc21)NCc1ccccc1Br | inactive: -0.448% | 
28 | COc1cc(C(C)C)c2c(c1)S(=O)(=O)N(COc1cc(=O)n3cccc(OCCN4CCCCC4)c3n1)C2=O | inactive: -17.3% | 
29 | CC1CCN(C(=O)C2COc3ccccc3C2)CC1 (centres undefined) | inactive: -4.37% | 
30 | CCCCOc1ccccc1C(=O)N(Cc1cccc(F)c1)C1CCS(=O)(=O)C1 (centres undefined) | inactive: -8.39% | 
31 | CCOc1ccc(CCNC(=O)CSc2nnnn2-c2ccc(C)cc2C)cc1OCC | inactive: -24.2% | 
32 | CCOc1ccc(NC(=O)N(C)CCc2c(C)nn(C)c2C)cc1 | inactive: 5.83% | 
33 | COc1cc(OC)c(NC(=O)C(Cc2ccccc2)NS(=O)(=O)c2cccc3nsnc23)cc1Cl (centres undefined) | inactive: -39.9% | 
34 | CN(C)c1ccc(NC(=O)CSc2nc3ccsc3c(=O)n2CCCCCC(=O)O)cc1 | inactive: 5.46% | 
35 | CC(C)CCNC(=O)CN1C(=O)c2cccnc2Sc2ccccc21 | inactive: -6.73% | 
36 | CC(=O)c1cccc(NC(=O)Cc2noc3ccccc23)c1 | inactive: 11.3% | 
37 | CCS(=O)(=O)c1ccccc1C(=O)Nc1ccc(-c2nc3ccccc3s2)cc1 | inactive: -24.8% | 
38 | COc1ccc(CC(=O)Nc2cc(-c3cn4cccnc4n3)ccc2OC)cc1 | inactive: -2.38% | 
39 | CCCCC(=O)NC1(C(F)(F)F)C(=O)Nc2c1c(=O)[nH]c(=O)n2-c1ccc(C)c(C)c1 (centres undefined) | inactive: -8.71% | 
40 | COc1cccc(NC(=O)CSC2=Nc3ccccc3C3=NC(CC(=O)NCc4ccc5c(c4)OCO5)C(=O)N23)c1 (centres undefined) | inactive: 11.2% | 
41 | COc1ccc(C)cc1NC(=O)Nc1ccccc1OCc1cc(=O)n2ccccc2n1 | inactive: -11.2% | 
42 | CCCCNC(=O)c1cnc2sc(N3CCCCCC3)nn2c1=O | inactive: 1.91% | 
43 | Cc1cc(C)c(NC(=O)C(=O)NCC(c2cccnc2)N2CCN(Cc3ccccc3)CC2)c(C)c1 (centres undefined) | inactive: -13.8% | 
44 | Cc1ccccc1-c1noc(-c2ccc(N3CCN(C)CC3)c([N+](=O)[O-])c2)n1 |  | active: 2.24 µM
45 | COc1ccc2c(c1)c1c(c(=O)n(-c3ccccc3)c(=O)n1CC(=O)NCc1ccc(C)cc1)n2C | inactive: -9.97% | 
46 | COc1ccc(CC(=O)N(Cc2nc(-c3ccc(C)cc3)no2)C(C)C)cc1 | inactive: -25.4% | 
47 | O=C(CSc1nc2nccnc2c(=O)n1CCc1c[nH]c2ccccc12)Nc1ccc(F)cc1 | inactive: -21.6% | 
48 | COc1ccc(-n2cc(C(=O)OCc3ccc(Cl)cc3)c3ccccc3c2=O)cc1 | inactive: 11% | 

Row | Structure (SMILES) | activity change, negative = inhibition | Potency
49 | CN(C)c1ccc(C(CNS(=O)(=O)c2ccc(F)cc2)N2CCOCC2)cc1 (centres undefined) | inactive: -17.1% | 
50 | Cc1c(C(=O)OC2CCCCCC2)[nH]c2c1C(=O)CC(c1ccc(N(C)C)cc1)C2 (centres undefined) | inactive: -0.0662% | 
51 | COc1cc(OC)cc(C(=O)Nc2cc(-c3nc4cccnc4s3)ccc2C)c1 | inactive: -15.2% | 
52 | CCOc1ccc(Nc2sc(C(=O)c3cccc(OC)c3)c(N)c2S(=O)(=O)c2ccccc2)cc1 | inactive: -8.82% | 
53 | COc1ccc(NC(=O)C2CCN(S(=O)(=O)c3ccc4c(c3)CCCC(=O)N4)CC2)c(OC)c1 | inactive: -27.6% | 
54 | Cn1c(=O)c(=O)n(C)c2cc(S(=O)(=O)N3CCCC3C(=O)Nc3ccc(F)cc3)ccc21 (centres undefined) | inactive: -11.3% | 
55 | CCOc1ccc(CNC(=O)Cn2ccc3cc(S(=O)(=O)N4CCCCC4)ccc32)cc1 | inactive: -19.6% | 
56 | COc1ccc(S(=O)(=O)N(CC(=O)NCCSCc2ccccc2)c2ccc(C)cc2)cc1 | inactive: -15.3% | 
57 | Cc1ccc(S(=O)(=O)NCc2ccc(C(=O)NCCc3cccc(C)c3)cc2)cc1 | inactive: -8.6% | 
58 | O=C(c1ccccc1Br)N1CCC(c2nc3ccccc3o2)CC1 | inactive: -20.2% | 
59 | Cc1ccc(Cn2c(=O)n(-c3cc(C)cc(C)c3)c(=O)c3oc4ccccc4c32)cc1 | inactive: -2.69% | 
60 | O=S(=O)(c1ccc(-n2cnnn2)cc1)N1CCN(c2cccc(C(F)(F)F)c2)CC1 | inactive: -7.14% | 
61 | Cc1ccsc1CN(C(=O)COc1cccc(C)c1C)C1CCS(=O)(=O)C1 (centres undefined) | inactive: -23.5% | 
62 | COc1cc(Cl)c(C)cc1NC(=O)c1sc2nc(C)cc(C)c2c1N | inactive: 3.8% | 
63 | COc1cc(C(=O)N(Cc2cccnc2)c2nc3cc(C)c(C)cc3s2)cc(OC)c1OC | inactive: -30.6% | 
64 | CCOC(=O)COc1ccc(F)cc1C(=O)c1ccn2nc(-c3ccc(C)cc3)cc2n1 | inactive: -7.67% | 
65 | COc1ccccc1NC(=O)C(Cc1ccccc1)NS(=O)(=O)c1cccc2nsnc12 (centres undefined) | inactive: -36% | 
66 | COC(=O)c1ccc(Cl)cc1NC(=O)N(Cc1ccc(OC)cc1)C1CCN(C(C)=O)CC1 | inactive: -10.3% | 
67 | COc1ccc(OC)c(NC(=O)CSc2nc3ccccc3c(=O)n2CCC(=O)NC2CCCCC2)c1 | inactive: 9.96% | 
68 | Cc1ccc(N2CCN(C(=O)NCc3noc4ccc(C)cc34)CC2)c(C)c1 | inactive: -9.07% | 
69 | Cc1ccccc1C(=O)N(Cc1ccc(N(C)C)cc1)CC1CCCO1 (centres undefined) | inactive: -0.473% | 
70 | CC(C)(C)OC(=O)Nc1ccc(-c2cc(C(=O)NCCCCCCC(=O)NO)no2)cc1 | inactive: -10.7% | 
71 | COc1ccccc1NC(=O)CSC1=Nc2ccccc2C2=NC(CC(=O)NCc3ccc4c(c3)OCO4)C(=O)N12 (centres undefined) | inactive: 0% | 
72 | CCOC(=O)c1noc2ncnc(NCc3ccccc3OC)c12 | inactive: -12.9% | 

Row | Structure (SMILES) | activity change, negative = inhibition | Potency
73 | COc1ccccc1N=C1SC(C(=O)Nc2ccccc2OC)CC(=O)N1C (centres undefined) | inactive: -10.4% | 
74 | O=C(NCCOCCn1c(=O)oc2ccccc21)Nc1cccc(Cl)c1 | inactive: -2.91% | 
75 | COC(=O)c1ccccc1NC(=O)C1CCCN(c2ncnc3onc(C)c23)C1 (centres undefined) | inactive: -5.85% | 
76 | Cc1ccc(CNC(=O)c2sc3nc4n(c(=O)c3c2C)CCCCC4)cc1 | inactive: -2.72% | 
77 | CC(C)c1ccc(NC(=O)c2ccc3c(O)c(S(=O)(=O)c4ccccc4)c(=O)[nH]c3c2)cc1 | inactive: 1.3% | 
78 | O=c1c2ccccc2n2c(-c3ccccc3F)nnc2n1CCc1ccccc1 | inactive: -22.5% | 
79 | COc1cc(OC)c(N(C)C(=O)c2cc3c(=O)oc4ccccc4c3s2)cc1Cl | inactive: -4.02% | 
80 | Cc1ccc(-n2nc(C(=O)N(C)Cc3ccccc3)c3c4ccccc4n(C)c3c2=O)cc1 | inactive: -13.2% | 
81 | Cc1ccc(-n2c(=O)c3c(c4cc(C)ccc4n3C)n(Cc3ccc(F)cc3)c2=O)cc1 | inactive: 11.2% | 
82 | CCCCNC(=O)CCn1c(=O)c2cccn2c2cccnc21 | inactive: 3.9% | 
83 | CCN(C(=O)c1c(C)oc2ncn(CC(C)C)c(=O)c12)c1cccc(Cl)c1 | inactive: -6.41% | 
84 | Cc1oc(-c2ccc(C(=O)NCc3ccccc3Cl)cc2)nc1CN1CCc2ccccc21 |  | active: 14.1 µM
85 | CCCn1c(CCC(=O)Nc2ccc(C)c(Cl)c2)nc2cccnc21 | inactive: -37.2% | 
86 | O=C(CC1N=C2c3ccccc3N=C(SCc3cccc(Cl)c3)N2C1=O)NCCc1ccccc1 (centres undefined) | inactive: -14.1% | 
87 | CCCS(=O)(=O)N1CC(=O)N(c2ccc(C)cc2C)C(C)(C(=O)NC2CCCCCC2)C1 (centres undefined) | inactive: -1.73% | 
88 | O=C(Cn1c(=O)nc(-c2ccccc2)c2cc(Cl)ccc21)NCc1ccc(Cl)cc1 | inactive: -24% | 
89 | COc1ccc(CCNS(=O)(=O)c2cc(-c3onc(C)c3C)ccc2OC)cc1OC | inactive: -4.19% | 
90 | CCOc1ccc(CCNC(=O)c2ccc3c(c2)N(Cc2ccccc2F)C(=O)c2ccccc2S3=O)cc1OCC (centres undefined) | inactive: -9.97% | 
91 | O=C(CCS(=O)(=O)c1cc2c3c(c1)CCN3C(=O)CC2)Nc1cccc(Br)c1 | inactive: -1.67% | 
92 | CCc1ccc(NC(=O)CSc2nc(=O)n(Cc3ccncc3)c3c2CCC3)cc1 | inactive: -27.7% | 
93 | O=C(COCc1cc(-c2ccc3c(c2)OCO3)on1)Nc1cc(C(F)(F)F)ccc1Cl | inactive: -2.32% | 
94 | Cc1cc2c(cc1S(=O)(=O)CCC(=O)N1CCCCC1C)OCC(=O)N2 (centres undefined) | inactive: -3.24% | 
